The campaign covered roughly 52,000 compounds. About 1,700 (3.3%) were called active. No stated cut-off is given here; in the data, active means survival mostly below about 52% (no sharp cut-off); inactive means mostly above about 56%. Some of the results follow.
The compounds below were run on Wild type (assay: S. aureus survival, RN4220 and DeltatarO strains – OD600, teichoic acid synthesis inhibitors, primary screen (AID 463173)). Details: S. aureus RN4220 wild type/DeltatarO growth, OD600, 18 h, hits give low values, screened at 18.75 µg/mL (by protocol).

Structure (SMILES) | survival
CC1=C(C(=O)Nc2ccc(C)cc2C)C(c2ccc(Cl)cc2)n2nc(C(=O)OC(C)C)nc2N1 (stereo unspecified) | inactive: 82%
COc1ccc(CN2COc3ccc4c(-c5ccccc5)cc(=O)oc4c3C2)cc1 | inactive: 117%
Cc1cccc(N2CCN(C(=O)C3CCN(S(=O)(=O)c4cccs4)CC3)CC2)c1C | inactive: 99%
O=C1CCN(C(=O)c2ccccc2)C2CCCCC12 (stereo unspecified) | inactive: 121%
COc1ccc(OC)c(NC(=O)Cn2cnc3c(oc4ccccc43)c2=O)c1 | inactive: 75%
Cc1ccccc1Nc1nnc(-c2ccc(C)c(S(=O)(=O)N3CCOCC3)c2)c2ccccc12 | inactive: 107%
Cc1ccsc1/C=N/NC(=O)CO | inactive: 106%
CCOc1ccc(NC(=O)C2CCN(S(=O)(=O)c3cc(-c4noc(C)n4)ccc3C)CC2)cc1 | inactive: 134%
CN(Cc1ccccc1)C(=O)COc1ccc(S(=O)(=O)N2CCCC2)cc1 | inactive: 121%
CC(C)CC(=O)NCc1nc2cccnc2n1Cc1ccccc1 | inactive: 77%
COc1ccc(C(=O)N2CC(C)CC(C)C2)cc1 (stereo unspecified) | inactive: 109%
O=C(O)CCC(=O)NC(c1ccccc1)c1ccccc1 | inactive: 108%
CSc1cccc(-c2nnc(NC(=O)c3ccc4c(c3)OCCO4)o2)c1 | inactive: 64%
O=S(=O)(Nc1cc(Sc2ncn[nH]2)c(O)c2ccccc12)c1cccs1 | inactive: 122%
CCOC(=O)c1nc(Nc2ccc(C(=O)OCC(C)C)cc2)c2ccccc2n1 | inactive: 91%
O=C(CCc1cn(Cc2ccccc2F)c2ccccc12)NCc1ccc(Cl)cc1 | inactive: 81%
O=C1CSC(c2ccccc2)N1Nc1nc(N2CCOCC2)nc(N2CCOCC2)n1 (stereo unspecified) | inactive: 120%
COc1ccc(-c2ccc(NS(=O)(=O)c3cccc(Cl)c3)cc2)nn1 | inactive: 82%
Cc1ccccc1CNC(=O)c1ccc(Cn2c(SCc3cccc(F)c3)nc3cccnc32)cc1 | inactive: 70%
COc1ccc(N2CCN(C(=O)c3cc(S(=O)(=O)N4CCCCCC4)cn3C)CC2)cc1 | inactive: 69%
CN1CCN(CCCC(=O)c2ccc(F)cc2)CC1 | inactive: 97%
Cc1ccc2oc(C(=O)N(Cc3cccc(F)c3)C3CCS(=O)(=O)C3)c(C)c2c1 (stereo unspecified) | inactive: 78%
COc1cccc(Cn2c(=O)n(-c3ccc(C)c(F)c3)c(=O)c3sc4ccccc4c32)c1 | inactive: 81%
COc1cccc(NC(=O)N2CCC(n3c(C)nc4cccnc43)CC2)c1 | inactive: 73%
COc1cccc(OC)c1C(=O)Nc1nnc(C)s1 | inactive: 77%
Cc1ccc(-c2cc(C(F)(F)F)n3nc(-c4ccc(Cl)cc4)cc3n2)cc1 | inactive: 66%

— PubChem BioAssay AID463173 (ICCB-Longwood Screening Facility, Harvard Medical School, 2010)
